# Data reported in article PMC4336329 (PLoS ONE, 2015).
# The campaign covered roughly 310,000 compounds. About 14,000 (4.5%) showed an effect of 50% or more. The effect is printed as a negative number. Some of the results follow.
# Target: human ether-à-go-go-related gene (hERG) potassium channel (human, UniProt Q12809)
# Experiment: primary screen, population patch clamp on CHO cells stably expressing hERG
# 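Further: peak tail current of the secondary pulse compared with the same well before compound.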
# human ether-à-go-go-related gene (hERG) potassium channel, sequence (Q12809 whole entry, looked up): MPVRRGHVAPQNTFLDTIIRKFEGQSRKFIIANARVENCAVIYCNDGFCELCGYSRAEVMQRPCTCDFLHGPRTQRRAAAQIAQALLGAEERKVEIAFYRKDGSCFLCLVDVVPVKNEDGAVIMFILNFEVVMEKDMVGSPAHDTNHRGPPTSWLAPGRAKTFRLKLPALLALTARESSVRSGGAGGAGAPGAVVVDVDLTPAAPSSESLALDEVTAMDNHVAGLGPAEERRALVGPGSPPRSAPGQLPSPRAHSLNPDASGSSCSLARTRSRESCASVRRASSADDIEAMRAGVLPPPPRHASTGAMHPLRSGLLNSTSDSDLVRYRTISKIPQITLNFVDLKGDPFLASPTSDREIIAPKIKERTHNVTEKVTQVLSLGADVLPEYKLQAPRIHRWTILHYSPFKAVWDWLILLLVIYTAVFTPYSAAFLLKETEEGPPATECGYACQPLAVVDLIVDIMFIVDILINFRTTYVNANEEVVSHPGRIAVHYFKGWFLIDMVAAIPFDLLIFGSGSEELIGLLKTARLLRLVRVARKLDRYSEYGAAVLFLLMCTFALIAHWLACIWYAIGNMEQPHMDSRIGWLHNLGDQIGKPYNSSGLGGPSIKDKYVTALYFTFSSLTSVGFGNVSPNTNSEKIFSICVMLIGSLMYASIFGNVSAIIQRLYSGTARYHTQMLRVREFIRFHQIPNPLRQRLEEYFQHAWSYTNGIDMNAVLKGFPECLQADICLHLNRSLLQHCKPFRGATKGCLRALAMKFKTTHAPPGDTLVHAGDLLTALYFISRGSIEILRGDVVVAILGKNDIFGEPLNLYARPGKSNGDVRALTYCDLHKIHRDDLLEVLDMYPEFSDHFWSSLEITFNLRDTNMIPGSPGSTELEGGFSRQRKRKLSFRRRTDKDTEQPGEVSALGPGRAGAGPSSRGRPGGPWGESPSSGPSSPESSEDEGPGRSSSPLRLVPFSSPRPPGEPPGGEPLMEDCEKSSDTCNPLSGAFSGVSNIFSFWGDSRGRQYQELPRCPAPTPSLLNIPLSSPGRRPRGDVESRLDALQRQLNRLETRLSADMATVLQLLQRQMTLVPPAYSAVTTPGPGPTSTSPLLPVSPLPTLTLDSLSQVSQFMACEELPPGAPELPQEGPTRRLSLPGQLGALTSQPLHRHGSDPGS
row,Compound,"hERG current change (%, negative = inhibition) at 10uM"
1,COc1cccc(C2CC(c3c(Cl)cccc3Cl)n3nc(N)nc3N2)c1 (stereo not shown),7.93%
2,Cc1ccc(S(=O)(=O)N(C)c2ccc(NS(C)(=O)=O)cc2)cc1,-42.2%
3,CC1(C)Cc2nc3oc4c(=O)n(CC(=O)Nc5cccc(Cl)c5)cnc4c3cc2CO1,17.8%
4,O=C(CSc1ncccn1)N1CCCc2ccccc21,-0.261%
5,CN(CCO)C1=NS(=O)(=O)c2cc([N+](=O)[O-])ccc21,14.7%
6,CC(C)CC(=O)Nc1cccc2c1C(=O)N(c1ccccc1)C2=O,6.31%
7,Oc1c(C(c2cccs2)N2CCN(c3cccc(Cl)c3)CC2)sc2ncnn12 (stereo not shown),-26.5%
8,C/C(=N/N=C1/NC(=O)CC(C(=O)O)S1)c1ccccc1 (stereo not shown),11.1%
9,Cc1ccccc1/C=c1\s/c(=C\C(=O)C(C)(C)C)[nH]c1=O,10.4%
10,CCN(CC)S(=O)(=O)N1CCC(C(=O)N2CCC3(CC2)OCCO3)CC1,21.5%
11,Cc1nnc(C)c2c(C)n(-c3cccc4cccnc34)c(C)c12,6.71%
12,O=c1cc(CSc2n[nH]c(-c3ccncc3)n2)nc2sccn12,13.9%
13,COc1ccc(C(=O)NNC2=NS(=O)(=O)c3ccccc32)cc1OC,18.7%
14,Cc1nnc(SCC(=O)Nc2ccccc2C(=O)NC2CC2)s1,-1.9%
15,COc1cccc(/C=N\NC(=O)C2C(=O)NCC2c2ccccc2)c1O (stereo not shown),-9.31%
16,O=C(N=C1SC2CS(=O)(=O)CC2N1c1ccc(Cl)c(Cl)c1)C1CCCO1 (stereo not shown),8.35%
17,COc1ccc(C(=O)Sc2ccc(Cl)cc2)cc1OC,-7.35%
18,O=C(O)c1cccc2c(-c3ccccc3)c(-c3ccccc3)[nH]c12,18.5%
19,CCOCCn1c(=O)c2c(nc3n2CC(C)CN3CCc2ccccc2)n(C)c1=O (stereo not shown),-71.5%
20,O=C(OCc1nnc(-c2ccccc2)o1)c1ccc2c(c1)C(=O)N(CCc1ccccc1)C2=O,26.7%
21,CC1(C)CC(=O)/C(=C(\O)CCCN2C(=O)c3ccccc3C2=O)C(=NCCO)C1,11.7%
22,O=C(C1CCN(S(=O)(=O)c2ccccc2)CC1)N1CCN(c2ccccc2F)CC1,-33.7%

row,Compound,"hERG current change (%, negative = inhibition) at 10uM"
1,O=C(Nc1ccccc1C(=O)O)c1cccc(NC(=O)c2ccccc2Cl)c1,22.1%
2,Cc1c(C(=O)OCC(=O)N(C)Cc2ccc(Cl)cc2)oc2ccccc12,-10%
3,CCCCn1c(O)c(C(C)=NC(Cc2c[nH]c3ccccc23)C(=O)OC)c(=O)[nH]c1=O (stereo not shown),-52.1%
4,Cc1ccc(Cl)c(NC(=O)CN(C)CC(=O)Nc2ccc(F)c(F)c2F)c1Cl,-23.8%
5,C=CCC(c1ccccc1F)N(CCN1CCOCC1)C(=O)Nc1cccc(Cl)c1 (stereo not shown),-34.6%
6,N/C(=N\OC(=O)CCC1CCCC1)c1ccc(Br)cc1,-31.6%
7,ON1C(c2ccccc2)CC2(O)c3nonc3CCC12 (stereo not shown),-2.85%
8,COCCN1C=C(C(=O)OC)C(c2ccccc2Cl)C(C(=O)OC)=C1,8.12%
9,COc1ccccc1NC(=O)Cn1nnc(-c2ccccc2NC(=O)c2cc3ccccc3oc2=O)n1,2.86%
10,COC(=O)c1c(NC(=O)CN2C(=O)NC(CCc3ccccc3)C2=O)sc2c1CCCCC2 (stereo not shown),2.25%
11,CCOc1ccccc1NC(=O)Cn1c(=O)sc2ccccc21,-2.1%
12,Cc1cc(C)c(OCC(=O)OCC(=O)N2CCN(C(=O)c3ccco3)CC2)c(C)c1,-30.4%
13,O=C(Oc1ccc([N+](=O)[O-])cc1)c1cccnc1,-11%
14,Cc1ccc(S(=O)(=O)N=S(CCO)CCO)cc1,4.93%
15,Cc1ccc(Sc2cnn(-c3ccccc3)c(=O)c2Cl)cc1,13.8%
16,Nc1nc(NCc2ccco2)nc(N2CCCCC2)c1[N+](=O)[O-],-19%
17,Cc1ccc(NNC(=O)c2cc(C(C)(C)C)nn2Cc2ccccc2)cc1,-4.99%
18,O=C(COC(=O)c1cccc(-n2cnnn2)c1)c1ccccc1,-4.63%
19,O=C(NCCS(=O)(=O)c1ccc(Br)cc1)c1ccc(Cl)cc1Cl,0.239%
20,COc1ccccc1N1CCN(C(=O)C2CCCCN2S(=O)(=O)c2ccc(C)cc2)CC1.Cl (stereo not shown),-15.7%
21,CNc1ccc(Oc2c(F)c(F)nc(F)c2F)cc1,-0.34%
22,CC(C)COc1ccc(C(=O)N/C(=C/c2cccc([N+](=O)[O-])c2)C(=O)O)cc1,15.6%

row,Compound,"hERG current change (%, negative = inhibition) at 10uM"
1,O=C(NC1CCCCC1)C(c1ccncc1)N(C(=O)Cn1nnc(-c2cccs2)n1)C1CCCC1 (stereo not shown),-39%
2,COc1ccc(CNc2ccc3c(c2)CCC3)cc1OC,1.81%
3,O=C(Oc1ccc2cc(Br)ccc2c1)N1CCCCCC1,16.3%
4,O=C(N/N=C/c1c(O)n(Cc2ccccc2)c(=O)[nH]c1=O)c1ccccc1O,-11.3%
5,CCCCn1c(N)c(N(CCC(C)C)C(=O)c2cc(S(=O)(=O)N3CCOCC3)ccc2F)c(=O)[nH]c1=O,2.05%
6,CCCCN(C(=O)CSCC(=O)Nc1cccc(C)c1)c1c(N)n(CCCC)c(=O)[nH]c1=O,0.54%
7,COc1ccc(NC(=O)c2ccccc2N(Cc2ccccc2)S(C)(=O)=O)c(OC)c1,-1.5%
8,CN(CC(=O)NC1CCCCC1)S(=O)(=O)c1cccc2cccnc12,-4.31%
9,O=C(c1ccc(NS(=O)(=O)c2ccc3[nH]c(=O)[nH]c3c2)cc1)N1CCN(c2ccccc2)CC1,9.88%
10,O=c1c(C=NCc2ccccc2)c(NCc2ccccc2)nc2ccccn12,6.54%
11,COc1ccc(OC)c(N(CC(=O)Nc2ccccc2)S(=O)(=O)c2ccccc2)c1,6.01%
12,COc1ccccc1Nc1nc(=O)[nH]nc1C,16.7%
13,CC(C)CC(=O)NC(=S)Nc1cc(C(=O)O)ccc1Cl,3.01%
14,CCn1cc(CN2CCC(n3nccc3NC(=O)c3ccccc3C)CC2)c(C)n1,-37.9%
15,O=C(/C=C/c1ccc2c(c1)OCO2)Nc1nncs1,9.93%
16,O=C(CCCCl)OCc1cn(-c2ccc(Cl)cc2)nn1,13.3%
17,CCc1ccc(NC(=S)/N=C(\N)Nc2nc(C)c3cc(CC)ccc3n2)cc1,-9.74%
18,COc1ccc(-c2nn(-c3ccccc3)cc2/C=C2/SC(=S)N(CCC(=O)O)C2=O)c(C)c1,13.1%
19,CCOC(=O)c1cc2ccc(OC(=O)c3ccco3)cc2oc1=O,-8.19%
20,O=C(CCN1C(=O)C2C3CCC(C3)C2C1=O)OCC(=O)c1ccc(Cl)cc1 (stereo not shown),-53.2%
21,COc1cccc(NC(=O)CNC(=O)c2ccc(OC)c(OC)c2)c1,-0.0878%
22,CCOc1ccccc1N1C(=O)NC(=O)C(CCc2ccncc2)(CCc2ccncc2)C1=O,-29.6%

row,Compound,"hERG current change (%, negative = inhibition) at 10uM"
1,COC(=O)[C@H](C)NC(=O)Nc1cccc(C(F)(F)F)c1,-5.83%
2,CC(C)C(NS(=O)(=O)c1cccc2nsnc12)C(=O)NCc1ccc2c(c1)OCO2 (stereo not shown),-18.7%
3,Cc1ccc(C)c(NC(=O)CSc2nnc([C@@H]3CCCN3C(=O)OC(C)(C)C)o2)c1,-2.24%
4,COC(=O)C1=C(C)N(C)C(=S)N(C)C1c1ccc(OC)cc1 (stereo not shown),-8.33%
5,COc1ccc(N2CCN(CCCNC(=O)CC3Oc4ccc(C)cc4NC3=O)CC2)cc1 (stereo not shown),-55.5%
6,CCOc1ccc(-c2cc(C(=O)NCCCN3CCN(CC)CC3)c3ccccc3n2)cc1,-38%
7,NC(=O)Cn1nnc(-c2ccccc2NC(=O)c2cnccn2)n1,3.85%
8,CC1CCN(C(=O)CN2C(=O)C(=O)N(C(C)C)C2=O)c2ccccc2S1 (stereo not shown),-4.64%
9,Cc1ccc(CNC(=O)C2CCC(=O)N(CCc3ccccc3)C2)s1 (stereo not shown),-25.7%
10,CC1CN(C(=O)CCC(=O)NCc2cccnc2)c2ccccc2O1 (stereo not shown),-8.06%
11,O=S(=O)(c1ccc(S(=O)(=O)N2CCCN(Cc3ccccc3)C2)cc1)N1CCCCCC1,10.6%
12,COc1ccc(CCNC(=O)C2c3ccccc3C(=O)N2CCC(C)C)cc1OC (stereo not shown),10.8%
13,Cc1cnc(SCCc2ccncc2)nc1C.Cl,11.3%
14,COc1ccc(NS(=O)(=O)c2ccc(NC(=S)NC(=O)CC(C)C)cc2)cc1,7.48%
15,Cc1ccc(/C=C/c2onc(C)c2S(=O)(=O)N2CCC(C(=O)N3CCCCC3)CC2)cc1,-9.38%
16,CCCC1C(=O)N(Cc2ccccc2)C(=O)CC1C (stereo not shown),3.29%
17,CC(=O)c1c(NCCc2ccccc2)nc(=S)n(-c2ccccc2)c1C,7.04%
18,NC(CO)(CO)CO.O=C(c1ccccc1)c1ccc2n1CCC2C(=O)O (stereo not shown),-3.5%
19,CCc1nc2ccccc2nc1N1CCN(S(=O)(=O)c2c(C)cc(Cl)cc2C)CC1,14.3%
